In PubChem BioAssay AID1508642 (National Center for Advancing Translational Sciences (NCATS), 2021):
Screen size: about 43,000 compounds; about 200 (0.47%) were called active. Roughly 12% stayed inconclusive and do not appear here. The call rests on the fitted dose curve; in most records, active means well fitted cell-killing curve with a large enough effect; inconclusive means small, poorly fitted or top-dose-only effect, or effect the other way; inactive means flat fitted curve, though single readings scatter. This is one part of the list.

Assay: Cell viability qHTS assay in S16 Pmp22-F2sN cells; further: nearly all actives have a fitted effect of over 65% in size
Conditions: S16 Pmp22-F2sN Schwann cells viability, CellTiter-Glo, 24 h; series mostly up to 57.5 µM; activity change, negative = cytotoxicity: at the top concentration
In short: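 S16 Pmp22-F2sN Schwann cells (500-1,000/well) in phenol-red-free DMEM with 10% FBS received 23 nL compound by pin tool for 24 h at 37 °C. Viability was then read as CellTiter-Glo luminescence after 15 min at room temperature.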
On the % scale 0 is the no-effect control and ±100 the full control effect.

| Compound | activity change, negative = cytotoxicity |
| --- | --- |
| CSCCC(NS(=O)(=O)c1ccc2c(c1)oc(=O)n2C)C(=O)NCc1ccc(F)cc1 (stereo not given) | inactive: 14.2% |
| COc1ccc(-n2cc(C(=O)N(C)c3cc(C)ccc3OC)c3ccccc3c2=O)cc1 | inactive: 0.178% |
| Cc1nn(Cc2noc(C(=O)NCc3cccc(F)c3)n2)c(C)c1Br | inactive: 3.47% |
| CCN1C(=O)C2(c3ccccc31)c1c(oc3ccc(C)cc3c1=O)C(=O)N2CCCOC(C)C (stereo not given) | inactive: 8.41% |
| Cc1cc2ccccc2n1CCNC(=O)c1ccc(F)cc1 | inactive: 14% |
| Cc1cc(O)c(C(c2ccc(Cl)cc2)N2CCN(c3ccccc3)CC2)c(=O)n1Cc1ccco1 (stereo not given) | inactive: 1.5% |
| CC1=C(c2ccc(C)cc2)S(=O)(=O)N(Cc2ccc(C(=O)Nc3ccccc3C)cc2)C1=O | inactive: 0.502% |
| COc1ccc(CCn2c(=O)[nH]c3cc(C(=O)N4CCN(c5ccccc5)CC4)ccc3c2=O)cc1OC | inactive: 0.232% |
| CCOc1ccccc1NC(=O)n1ncc2cc(Cl)ccc21 | inactive: -11.1% |
| COCCNC(=O)CCCN1C(=O)CCn2nc(-c3cccn3C)cc21 | inactive: -0.503% |
| Cc1ccc(CCNC(=O)c2ccc(CS(=O)(=O)c3ccc(Cl)cc3)o2)cc1 | inactive: -8.65% |
| O=C(c1ccccc1F)N1CCC(c2nc3c(nnn3Cc3cccc(F)c3)c(=O)[nH]2)CC1 | inactive: 0.299% |
| Cc1oc(-c2ccc(C(=O)NC(C)c3ccccc3)cc2)nc1CS(=O)(=O)c1ccccc1 (stereo not given) | inactive: -8.04% |
| COC(=O)c1ccccc1NC(=O)CCCN1C(=O)C(c2ccccc2)Oc2cccnc21 (stereo not given) | inactive: 18.1% |
| COc1ccc(NC(=O)Cn2c(=O)oc3cc(S(=O)(=O)N4CCCCC4C)ccc32)cc1 (stereo not given) | inactive: -18.1% |
| CCCOc1ccc(C(=O)Nc2ccc3nn(-c4ccc(OC)c(Cl)c4)nc3c2)cc1 | inactive: -3.74% |
| COc1cccc2c1Oc1nc(-c3ccccc3)nc(SCC(=O)Nc3ccccc3)c1C2 | inactive: 8.37% |
| CCOc1ccc(-c2nnc(SCC(=O)Nc3cc(F)ccc3F)o2)cc1 | inactive: -14.4% |
| COc1ccc(CCNC(=O)c2ccc3nc(Cc4ccccc4)oc3c2)cc1OC | inactive: -1.99% |
| Nc1nonc1-c1nc2ccccc2n1Cc1c(Cl)cccc1Cl | inactive: 25.7% |

| Compound | activity change, negative = cytotoxicity |
| --- | --- |
| COc1ccc(N(CC(=O)NCCc2ccccc2)S(=O)(=O)c2ccc(OC)c(OC)c2)cc1 | inactive: -5.05% |
| O=C(C1CCCN(S(=O)(=O)c2cccc3nonc23)C1)N1CCN(c2ccccc2Cl)CC1 (stereo not given) | inactive: -13.1% |
| COc1ccc(NC(=O)c2cnn(-c3ccc(F)cc3F)c2C2CCN(C(=O)OC(C)(C)C)CC2)cc1Cl | inactive: -21.2% |
| COc1ccc(CNC(=O)c2ccc(NC(=O)N3CCSc4ncccc43)cc2)cc1OC | inactive: -0.367% |
| CCOC(=O)c1c(NC(=O)CCCOc2ccc(Cl)cc2)sc2c1CCC2 | inactive: -13.5% |
| COc1ccc(OC)c(-c2noc(N3CCN(c4ccc(C(C)=O)cc4)CC3)n2)c1 | inactive: -11.1% |
| COc1ccc(-c2oc3ncn4nc(COc5ccc(C)cc5)nc4c3c2-c2ccc(OC)cc2)cc1 | inactive: 5.98% |
| CCOC(=O)Cn1c(=O)oc2cc(S(=O)(=O)N3CCN(c4ccccc4OC)CC3)ccc21 | inactive: 3.56% |
| O=C(NCCc1csc2nc(-c3ccccc3F)nn12)c1ccccc1C(F)(F)F | inactive: -3.08% |
| COc1cccc(CN(C(=O)c2ccc(C(C)(C)C)cc2)C2CCS(=O)(=O)C2)c1 (stereo not given) | inactive: -2.07% |
| CCOC(=O)c1cc(-c2ccc(OC)c(S(=O)(=O)NCc3ccccc3Cl)c2)on1 | inactive: 2.04% |
| CC1CCCCN1CCCNC(=O)CN1C(=O)CSc2ccc(S(=O)(=O)N3CCOCC3)cc21 (stereo not given) | inactive: 23.9% |
| CCc1ccc(NC(=O)Nc2ccccc2OCc2cc(=O)n3ccccc3n2)cc1 | inactive: 0.166% |
| COc1ccc(OC)c(NC(=O)Cn2ccn(-c3ccc(OC)c(OC)c3)c(=O)c2=O)c1 | inactive: 2.44% |
| CCCNC(=O)CSc1c(CCC)cnc2c1c(=O)n(C)c(=O)n2C | inactive: 11.8% |
| CCCCNc1ccc(-c2nc(-c3ccccn3)no2)cc1[N+](=O)[O-] | inactive: 0.377% |
| COc1ccc(-c2nnn3c2nc(NCc2ccc(C)cc2)c2ccccc23)cc1 | inactive: 9.4% |
| Cc1cc(C)c(NC(=O)C(C)n2c(=O)cc(-c3ccccc3)c3c(C)nn(C)c32)c(C)c1 (stereo not given) | inactive: 4.72% |
| Cc1ccccc1C(=O)OCc1cc(=O)n2nc(C3CCCCC3)sc2n1 | inactive: -23.3% |
| Cc1nnc2c(N3CCN(c4ccc(F)cc4)CC3)nc3ccc(C(=O)c4ccccc4)cc3n12 | inactive: -2.09% |

| Compound | activity change, negative = cytotoxicity |
| --- | --- |
| O=C(CN1C(=O)C2(SCC(=O)N2c2cccc(F)c2)c2ccccc21)NCCc1ccccc1 (stereo not given) | inactive: -17.9% |
| O=C(NCCc1csc(-c2cccnc2)n1)c1ccccc1 | inactive: -1.65% |
| CCOC(=O)c1cnc(N2CCN(c3cccc(C)c3C)CC2)c2ccccc12 | inactive: 2.87% |
| Cc1cccc(C(=O)NC2(C(F)(F)F)N=C(c3ccccc3)N(C3CCCCC3)C2=O)c1 (stereo not given) | inactive: 4.78% |
| COc1ccc(-c2onc(C)c2C)cc1S(=O)(=O)Nc1cccc(C#N)c1 | inactive: -20.1% |
| O=C(NCCc1ccc(Cl)cc1)c1ccc2c(c1)nc1n2CCOC1 | inactive: 17.7% |
| CCOC(=O)N1CCc2c(sc3c2c(=O)n(-c2ccc(F)cc2)c(=O)n3CC(=O)c2ccc(Cl)cc2)C1 | inactive: 1.66% |
| CC(=O)C1=C(c2ccc(F)cc2)N(C(C)=O)n2c(nnc2C2CCCCC2)S1 | inactive: -18.1% |
| Cc1ccc(NC(=O)CSc2nc(-c3cccs3)nc3cc(=O)[nH]n23)cc1C | inactive: -3.83% |
| CCOc1ccccc1CN1CCc2nc(N3CCN(C)CC3)ncc2C1 | inactive: 1.59% |
| O=C(Cn1ncc2c3ccccc3n(Cc3cccc(Cl)c3)c2c1=O)NCCCN1CCCCC1 | inactive: -0.799% |
| CCOCCCNc1nc2c(S(=O)(=O)c3ccc(CC)cc3)nnn2c2ccc(Cl)cc12 | inactive: 4.35% |
| Cc1ccc(CNC(=O)Cn2c(=O)cc(C)c3c(C)nn(-c4cccc(F)c4)c32)cc1 | inactive: -0.446% |
| CCOc1ccc(-c2cc(C(=O)NC(C)c3ccccc3)c3ccccc3n2)cc1 (stereo not given) | inactive: 0.159% |
| COc1ccc(COC(=O)C2=C(C)NC(=O)CC2c2cccc(Cl)c2Cl)cc1 (stereo not given) | inactive: 0.732% |
| CN1C(C(=O)c2ccccc2)=C(NC(=O)c2ccc(F)cc2)c2ccccc2S1(=O)=O | inactive: 5.08% |
| CCN(CC)c1ccc(NC(=O)CN2CCN(c3ccccc3OC)CC2)cc1 | inactive: 6.04% |
| Oc1c(C(c2ccccc2)N2CCOCC2)sc2nc(-c3ccco3)nn12 (stereo not given) | inactive: -2.24% |
| CCOC(=O)c1cc(C)n(CC2CCC(C(=O)Nc3cccc(Cl)c3)CC2)c1C (stereo not given) | inactive: -14.2% |
| Nc1c(C(=O)Nc2cccc(F)c2)nnn1-c1cccc(C(F)(F)F)c1 | inactive: -1.71% |
